# Data as given in the supplement of paper PMC4723716.
# ± gives the uncertainty stated by the source. The full ranking holds about 9,900 compounds; the median of “viability index relative to DMSO control” is about 1, and the lowest 2% start at about 0.85. The list shows a part of the results.
# Test system: Plasmodium falciparum NF54 stage V gametocytes
# Test: viability index relative to DMSO control (fraction); higher = less gametocyte killing
# Conditions: 2.5 µM, library set: Broad Institute DOS, incubation time: 72 h
# Summary of the method: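 Compound at 2.5 µM was incubated for 72 hr at 37°C under low oxygen with P. falciparum NF54 stage V gametocytes (0.75% gametocytemia, 1.25% hematocrit, 10 µl, serum-free screening medium) in 1,536-well plates. Staining used 3 µl of 2.5 µM MitoTracker Red CMXRos plus 0.13% saponin for one to two hours, and red particles of 20–70 µm2 were counted in one imaged field per well. Each viability index is that count relative to the plate mean of solvent-only wells.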
row,Structure (SMILES),viability index
1,O=C(C1CCCCC1)N1CC(=O)N2[C@H](CO)[C@@H](c3ccc(-c4ccccc4F)cc3)[C@@H]2C1,1.064 ± 0.0081
2,C[C@@H]1CN([C@H](C)CO)C(=O)CCCn2nncc2CO[C@H]1CN(C)C(=O)Nc1ccc2c(c1)OCCO2,0.9785 ± 0.0043
3,COc1ccccc1NC(=O)N1C[C@H]2[C@@H](c3ccccc31)[C@H](CO)N2CC1CCOCC1,1.02 ± 0.062
4,CC(=O)NC[C@H]1[C@H](c2ccc(C3=CCCC3)cc2)[C@@H](CO)N1Cc1cccnc1,1.01 ± 0.089
5,Cc1nn(C)cc1NC(=O)C[C@H]1CC[C@H]2[C@H](COc3ccc(NC(=O)C4CCOCC4)cc3C(=O)N2C)O1,0.978 ± 0.11
6,COc1ccc2c3c([nH]c2c1)[C@H](CO)N(Cc1ccc(Cl)cc1)C[C@]31CCN(Cc2nccs2)CC1,0.884 ± 0.047
7,C[C@@H](O)C#Cc1ccc([C@@H]2[C@H]3CN(CC4CC4)CCCCN3[C@H]2CO)cc1,1.04 ± 0.053
8,COc1ccc2c3c([C@@H](CO)N(C[C@]33CN(C3)C(C)=O)C(=O)c3ccncc3)n(C)c2c1,1.03 ± 0.11
9,COc1ccc2c3c([nH]c2c1)[C@H](CO)N(C[C@]31CN(Cc2ccc(F)cc2)C1)C(=O)NC(C)C,0.962 ± 0.069
10,CC(C)C(=O)Nc1ccc2c(c1)C(=O)N(C)[C@@H]1CC[C@@H](CC(=O)NCCc3ccccc3)O[C@@H]1CO2,1.12 ± 0.18
11,C[C@@H]1CN([C@@H](C)CO)C(=O)c2c(c3ccccc3n2C)-c2ccccc2CO[C@H]1CN(C)C(=O)[C@H]1CCCN1C,1.08 ± 0.011
12,CCCNC(=O)N1C[C@]2(CCN(Cc3cccc(OC)c3)CC2)c2c([C@H]1CO)n(C)c1cc(OC)ccc21,0.9943 ± 0.0058
13,Cc1noc(C)c1S(=O)(=O)N(C)C[C@H]1OCc2ccccc2-c2c(n(C)c3ccccc23)C(=O)N([C@H](C)CO)C[C@H]1C,0.948 ± 0.025
14,C[C@@H]1CN([C@@H](C)CO)C(=O)Cc2cc(NS(=O)(=O)c3ccc(F)cc3)ccc2O[C@@H]1CN(C)Cc1ccncc1,0.975 ± 0.051
15,CO[C@@H]1CC[C@@H]2CCOc3c(C#N)cccc3C(=O)N(C)C[C@H](c3ccccc3)CC(=O)N(C)C[C@H]1O2,0.992 ± 0.075
16,O=C(C[C@@H]1C=C[C@H](NC(=O)CCN2CCCCC2)[C@@H](CO)O1)Nc1nccs1,0.982 ± 0.15
17,C[C@@H]1CCCCO[C@@H](CN(C)Cc2ccc(Cl)c(Cl)c2)[C@H](C)CN([C@@H](C)CO)C(=O)c2cc(NS(=O)(=O)c3cccs3)ccc2O1,1.02 ± 0.073
18,C[C@@H]1CN([C@@H](C)CO)C(=O)Cc2cc(NC(=O)C3CC3)ccc2O[C@@H]1CN(C)S(=O)(=O)c1cn(C)cn1,0.967 ± 0.047
19,CN1C(=O)c2cc(NS(=O)(=O)c3ccccc3F)ccc2OC[C@H]2O[C@@H](CC(=O)NC3Cc4ccccc4C3)CC[C@@H]21,0.979 ± 0.096
20,O=C(c1cccnc1)N1CC2(C1)[C@@H](c1ccccc1)[C@@H](CO)N2Cc1ccc(Cl)cc1,1.11 ± 0.029
21,CC(=O)N1[C@@H]2c3ccc(-c4cccnc4)c(=O)n3C[C@H]1[C@H](CO)[C@H]2C(=O)NC1Cc2ccccc2C1,1.07 ± 0.075
22,C[C@@H]1CN([C@@H](C)CO)C(=O)c2cccc(NS(C)(=O)=O)c2O[C@@H]1CN(C)Cc1ccc(-c2ccccc2)cc1,1.04 ± 0.011

row,Structure (SMILES),viability index
1,COc1cccc(NC(=O)C[C@@H]2CC[C@H]3[C@@H](COc4ccc(NS(=O)(=O)c5cccc(F)c5)cc4C(=O)N3C)O2)c1,1.08 ± 0.049
2,CO[C@H]1CN(C)C(=O)c2ccc(NS(=O)(=O)c3c(C)noc3C)cc2OC[C@@H](C)NC[C@@H]1C,1.06 ± 0.02
3,O=C(C[C@@H]1CC[C@H]2[C@@H](COC[C@H](O)CN2C(=O)c2ccc(F)cc2)O1)N1CCCCC1,1.08 ± 0.055
4,O=C(C[C@H]1CC[C@@H]2NC[C@H](O)COC[C@H]2O1)NCCN1CCCCC1,0.97 ± 0.086
5,O=C(C[C@@H]1CC[C@H]2[C@@H](COC[C@H](O)CN2Cc2ccc3c(c2)OCO3)O1)N1CCCCC1,0.994 ± 0.096
6,CCCN1C[C@H](C)[C@H](OC)CN(C)C(=O)c2ccc(NS(=O)(=O)c3cn(C)cn3)cc2OC[C@H]1C,0.9716 ± 0.006
7,CO[C@@H]1CC[C@H]2CCOc3ccc(C#N)cc3C(=O)N(C)[C@@H](C)C(=O)N(C)C[C@H]1O2,1.08 ± 0.071
8,CO[C@@H]1CN(C)C(=O)c2cc(NC(=O)Nc3cccc(Cl)c3)ccc2OC[C@H](C)N(C(=O)Nc2c(C)noc2C)C[C@@H]1C,1.08 ± 0.063
9,CCCN1C[C@@H](C)[C@@H](OC)CN(C)C(=O)c2cc(NC(=O)Nc3cccc(F)c3)ccc2OC[C@H]1C,1.04 ± 0.039
10,CO[C@H]1CN(C)C(=O)c2cc(NC(=O)c3cccc(F)c3)ccc2OC[C@H](C)N(C)C[C@@H]1C,1.12 ± 0.038
11,CN1CCCCN2[C@@H](CO)[C@H](c3ccc(-c4ccc(F)cc4)cc3)[C@@H]2C1,0.9696 ± 0.0088
12,C/C=C/c1ccc2n(c1=O)C[C@H]1[C@H](CO)[C@@H](C(=O)NCC3CC3)[C@@H]2N1C(=O)Nc1cc(F)ccc1F.C/C=C\c1ccc2n(c1=O)C[C@H]1[C@H](CO)[C@@H](C(=O)NCC3CC3)[C@@H]2N1C(=O)Nc1cc(F)ccc1F,1.074 ± 0.0083
13,CO[C@H]1CN(C)C(=O)c2ccc(NC(=O)c3ccccc3F)cc2OC[C@H](C)N(C)C[C@H]1C,1.07 ± 0.08
14,COc1ccc2c3c([nH]c2c1)[C@@H](CO)N(C[C@]31CCN(CC1)S(=O)(=O)c1cccs1)C(=O)c1ccc(F)cc1,1.054 ± 0.0085
15,CO[C@H]1CN(C)C(=O)c2ccc(NC(=O)Nc3c(C)noc3C)cc2OC[C@H](C)N(CCC(F)(F)F)C[C@@H]1C,0.972 ± 0.084
16,N#C[C@@H]1[C@H](c2ccccc2C2=CCCC2)[C@H](CO)N1C(=O)Cc1ccncc1,1.15 ± 0.038
17,CCNC[C@@H]1[C@@H](c2ccc(-c3ccc(F)cc3)cc2)[C@@H](CO)N1C(=O)C1CC1,0.921 ± 0.038
18,COc1ccc(NC(=O)N2CCCCN3[C@H](CO)[C@@H](c4ccc(-c5ccccc5F)cc4)[C@H]3C2)cc1,0.9749 ± 0.0037
19,C/C=C/c1ccc([C@H]2[C@@H](CO)N(C(=O)c3ccccc3)C23CN(C(C)=O)C3)cc1,1.08 ± 0.074
20,C/C=C/c1ccc([C@H]2[C@H](CO)N(C(=O)CN(C)C)C23CN(C(=O)C2CCOCC2)C3)cc1,1.05 ± 0.059
21,N#C[C@H]1[C@@H](c2ccc(C#Cc3ccccc3F)cc2)[C@H](CO)N1C(=O)c1cccnc1,1.1 ± 0.082
22,C[C@H](CO)N1C[C@H](C)[C@H](CN(C)S(=O)(=O)c2ccccc2F)Oc2ncc(/C=C/c3ccccc3)cc2C1=O,0.929 ± 0.11
